# IC50 is the fitted dose that halves viability relative to control wells, and lower means more sensitive; a fit beyond the top or the lowest dose is shown as a bound at that dose. AUC sums up the same curve from the lowest dose to the 256-fold higher top dose; it is 1 without any effect and falls as sensitivity rises. For some of these results: Any top dose called inferred comes from the curve model; the source does not state it.
# Experiments:
# Experiment in all cases: Viability of human cancer cell lines after 72 h of drug (GDSC screen)
# [1] = compound: CCC1=C[C@@H]2CN(C1)Cc1c([nH]c3ccccc13)[C@@](C(=O)OC)(c1cc3c(cc1OC)N(C)[C@H]1[C@@](O)(C(=O)OC)[C@H](OC(C)=O)[C@]4(CC)C=CCN5CC[C@]31[C@@H]54)C2 [Vinorelbine]; details: top dose 0.064 µM; top dose inferred
# Procedure: (§1)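 Human cancer cell lines in 384-well plates, medium with 10% serum, drug for 72 h over a 256-fold dose range (nine 2-fold or five 4-fold steps up to the top dose). Adherent lines were fixed and stained with the nucleic acid dye Syto60, suspension lines read with resazurin; signal relative to control wells, capped at 0 and 100%. One two-parameter sigmoid per drug and line, fitted in a mixed model over all curves with the slope shared within a line.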
# [2] = compound: C=CC(=O)Nc1cc(NC(=O)c2ccc(C)c(NC(=O)c3ccno3)c2)cc(C(F)(F)F)c1 [QL-XI-92]; details: top dose 10.24 µM; top dose inferred
# Procedure: as §1
# [3] = compound: CNCc1ccc(-c2[nH]c3cc(F)cc4c3c2CCNC4=O)cc1 [AG-014699]; details: top dose 5 µM; top dose inferred
# Procedure: as §1
# [4] = compound: N[C@@H](CSC(c1ccccc1)(c1ccccc1)c1ccccc1)C(=O)O [S-Trityl-L-cysteine]; details: top dose 5.12 µM; top dose inferred
# Procedure: as §1
# [5] = compound: O=c1cc(N2CCOCC2)oc2c(-c3cccc4c3sc3ccccc34)cccc12 [NU-7441]; details: top dose 2 µM; top dose inferred
# Procedure: as §1
# [6] = compound: O=c1cc(CN2CCOCC2)occ1OCCCCCSc1ccnc2cc(C(F)(F)F)ccc12 [EHT 1864]; details: top dose 10 µM; top dose inferred
# Procedure: as §1
# [7] = compound: N=C(N)NC(=N)NCCc1ccccc1 [Phenformin]; details: top dose 4000 µM; top dose inferred
# Procedure: as §1
# [8] = compound: COc1cc2ncnc(Nc3cc(Br)c(O)c(Br)c3)c2cc1OC [WHI-P97]; details: top dose 10.24 µM; top dose inferred
# Procedure: as §1
# [9] = compound: COc1cc2nccc(Oc3ccc(NC(=O)C4(C(=O)Nc5ccc(F)cc5)CC4)cc3)c2cc1OC [XL-184]; details: top dose 5.12 µM; top dose inferred
# Procedure: as §1
# [10] = compound: COc1cc2ncnc(Nc3ccc(F)c(Cl)c3)c2cc1OCCCN1CCOCC1 [Gefitinib]; details: top dose 0.5 µM
# Procedure: as §1
Cell Line,AUC [1],IC50 [1],AUC [2],IC50 [2],AUC [3],IC50 [3],AUC [4],IC50 [4],AUC [5],IC50 [5],AUC [6],IC50 [6],AUC [7],IC50 [7],AUC [8],IC50 [8],AUC [9],IC50 [9],AUC [10],IC50 [10]
"NB7 (neuroblastoma, adherent)",0.787,29.3 nM,0.897,> 10.2 µM,0.942,> 5 µM,0.976,> 5120 nM,0.986,> 2000 nM,0.862,9.22 µM,0.867,3900 µM,0.969,> 10.2 µM,0.86,4.61 µM,–,–
"NCI-H1355 (lung adenocarcinoma, adherent)",0.478,3.4 nM,0.967,> 10.2 µM,0.959,> 5 µM,0.657,1060 nM,0.894,> 2000 nM,0.902,> 10 µM,0.802,3110 µM,0.97,> 10.2 µM,0.978,> 5.12 µM,–,–
"NCI-H1581 (large cell lung carcinoma, semi-adherent)",0.872,52.7 nM,0.951,> 10.2 µM,0.99,> 5 µM,0.862,3820 nM,–,–,0.938,> 10 µM,0.606,478 µM,0.983,> 10.2 µM,0.936,> 5.12 µM,0.982,> 500 nM
"NCI-H1666 (lung adenocarcinoma, semi-adherent)",0.971,> 64 nM,0.986,> 10.2 µM,0.987,> 5 µM,0.987,> 5120 nM,–,–,0.984,> 10 µM,0.792,2010 µM,0.967,> 10.2 µM,0.982,> 5.12 µM,0.795,257 nM
"NCI-H1694 (small cell lung carcinoma, suspension)",0.846,46.2 nM,0.809,5.31 µM,0.989,> 5 µM,0.896,> 5120 nM,0.979,> 2000 nM,0.988,> 10 µM,0.621,536 µM,0.972,> 10.2 µM,0.983,> 5.12 µM,–,–
"NCI-H1963 (small cell lung carcinoma, suspension)",0.719,15.1 nM,–,–,0.991,> 5 µM,0.701,1080 nM,–,–,0.991,> 10 µM,0.704,860 µM,0.956,> 10.2 µM,0.989,> 5.12 µM,0.991,> 500 nM
"NCI-H1975 (lung adenocarcinoma, adherent)",0.541,5.27 nM,0.952,> 10.2 µM,0.977,> 5 µM,0.794,2750 nM,0.968,> 2000 nM,0.934,> 10 µM,0.621,569 µM,0.976,> 10.2 µM,0.954,> 5.12 µM,–,–
"ONS-76 (medulloblastoma, adherent)",0.493,3.82 nM,0.813,6.09 µM,0.877,> 5 µM,0.885,> 5120 nM,0.985,> 2000 nM,0.953,> 10 µM,–,–,0.965,> 10.2 µM,0.968,> 5.12 µM,0.982,> 500 nM
"PL-21 (acute myeloid leukaemia, suspension)",0.734,21.1 nM,0.939,> 10.2 µM,0.979,> 5 µM,0.65,900 nM,–,–,–,–,0.616,552 µM,0.957,> 10.2 µM,0.888,> 5.12 µM,0.982,> 500 nM
"RKO (large intestine, adherent)",0.303,1.17 nM,0.927,> 10.2 µM,0.975,> 5 µM,0.664,879 nM,0.974,> 2000 nM,0.96,> 10 µM,0.632,562 µM,0.987,> 10.2 µM,0.904,> 5.12 µM,–,–
"RL95-2 (endometrium, adherent)",0.613,8.13 nM,0.987,> 10.2 µM,–,–,0.59,563 nM,–,–,–,–,0.839,2690 µM,0.869,9.31 µM,0.876,5.01 µM,0.912,> 500 nM
"RS4-11 (leukaemia, suspension)",0.566,5.94 nM,0.733,2.74 µM,0.958,> 5 µM,0.615,642 nM,0.88,1760 nM,0.942,> 10 µM,0.459,195 µM,0.931,> 10.2 µM,0.812,2.46 µM,–,–
"SCC-15 (head and neck, adherent)",0.652,12.2 nM,0.97,> 10.2 µM,0.89,> 5 µM,0.926,> 5120 nM,0.96,> 2000 nM,0.946,> 10 µM,0.693,1060 µM,0.826,9.36 µM,0.846,> 5.12 µM,–,–
"SNU-C1 (large intestine, suspension)",0.834,> 64 nM,0.978,> 10.2 µM,0.976,> 5 µM,0.898,> 5120 nM,0.898,> 2000 nM,0.902,> 10 µM,0.307,55 µM,0.979,> 10.2 µM,0.979,> 5.12 µM,–,–

# From the supplement of paper PMC4967469
